The other results are listed elsewhere or left out. Single values of this set are uncertain. Values with irradiation are relative to irradiated vehicle.

In this test the test system is A549-Dual. As to the kind of experiment: ISRE reporter (Lucia luciferase) activity, viability-corrected, relative to vehicle (fold change vs vehicle); higher = more activation of STING-IRF / NF-kB immune response reporter. To be noted: 10 µM; irradiation: 8 Gy/4 fr.
`CC(NC(=NC#N)Nc1ccncc1)C(C)(C)C.O` (stereo not given) [Pinacidil]: the ISRE reporter was 0.836. For `CN(C)N(C)C(=O)C1(Cc2ccccc2)CCCN(C(=O)C(Cc2c[nH]c3ccccc23)NC(=O)C(C)(C)N)C1` (stereo not given) [Anamorelin], the ISRE reporter turned out to be 1.28. Then `NNC(=O)c1ccncc1.Nc1ccc(C(=O)O)c(O)c1` [Pasiniazid], with 1.39; and `Cc1nc(C(=O)NCC(=O)O)c(O)c2ccc(Oc3ccccc3)cc12` [Roxadustat (FG-4592)], with 0.418; and `COc1ccccc1O` [Guaiacol], with 0.941. Then `O=C([O-])CCC(=O)OCC(NC(=O)C(Cl)Cl)C(O)c1ccc([N+](=O)[O-])cc1.[Na+]` (stereo not given) [Chloramphenicol sodium succinate], with 0.736; and `CCCCC(CC)CN1CN(CC(CC)CCCC)CC(C)(N)C1` (stereo not given) [Hexetidine], with 1.17.

Compound `CC(C)=CCC/C(C)=C/CC/C(C)=C/CC/C=C(\C)CC/C=C(\C)CCC=C(C)C` [Squalene] showed an ISRE reporter of 0.935. The value for `Cl.NCCC[C@H](N)C(=O)O` [L-Ornithine] was 0.138. As for `CNCc1cc(-c2ccccc2F)n(S(=O)(=O)c2cccnc2)c1.O=C(O)/C=C/C(=O)O` [Vonoprazan Fumarate (TAK-438)], the ISRE reporter amounted to 1.16. On to `Cc1cccc(C)c1OCC(=O)NC(Cc1ccccc1)C(O)CC(Cc1ccccc1)NC(=O)C(C(C)C)N1CCCNC1=O` (stereo not given) [Lopinavir], for which the ISRE reporter came to 0.598. The value for `C=CC1C(OC2OC(CO)C(O)C(O)C2O)OC=C2C(=O)OCCC21O` (stereo not given) [Swertiamarin] was 1.01; that for `CC(C)=CCCC(C)CC=O` (stereo not given) [Citronellal] was 1.09. The value for `COc1ccccc1Oc1c(NS(=O)(=O)c2ccc(C(C)(C)C)cc2)nc(-c2ncccn2)nc1OCCO.O` [Bosentan Hydrate] was 0.63. With `O=C(O)c1ccc(C(=O)O)cc1` [Terephthalic acid], the ISRE reporter was 0.82. Compound `Cc1ccc(S(=O)(=O)NC(=O)NN2CC3CCCC3C2)cc1` (stereo not given) [Gliclazide] registered an ISRE reporter of 0.821. As to `OCc1cc(C(O)CNCCCCCCOCCCCc2ccccc2)ccc1O` (stereo not given) [Salmeterol], the ISRE reporter amounted to 0.635.

Consider `Cc1cc(O)c2c(c1)C(=O)c1cc(O)cc(O)c1C2=O` [Emodin], for which the ISRE reporter was 0.192. Then `CN(C)c1cc(NC(=O)CNC(C)(C)C)c(O)c2c1CC1CC3C(N(C)C)C(O)=C(C(N)=O)C(=O)C3(O)C(O)=C1C2=O` (stereo not given) [Tigecycline], with 0.62; and `O=C(Nc1ccc(Cl)cc1)Nc1ccc(Cl)c(Cl)c1` [Triclocarban], with 0.386; and `CC1=NN(c2ccc(C)c(C)c2)C(=O)/C1=N\Nc1cccc(-c2cccc(C(=O)O)c2)c1O` [Eltrombopag], with 0.213. In the case of `Cc1cc(C2CCCCC2)n(O)c(=O)c1` [Ciclopirox], the ISRE reporter worked out at 0.17. As to `CN(C)CCCN1c2ccccc2Sc2ccc(Cl)cc21.Cl` [Chlorpromazine HCl], the ISRE reporter amounted to 0.998.

Regarding `CCc1cc2c(cc1CC)CC(NCC(O)c1ccc(O)c3[nH]c(=O)ccc13)C2.O=C(O)/C=C\C(=O)O` (stereo not given) [Indacaterol Maleate], the ISRE reporter turned out to be 0.778. The value for `CCCOC(=O)c1ccc(O)cc1` [Propylparaben] was 0.645; that for `CC(C)(Oc1ccc(C(=O)c2ccc(Cl)cc2)cc1)C(=O)[O-].C[N+](C)(C)CCO` [Choline Fenofibrate] was 0.614.

In the case of `NS(=O)(=O)c1cc(C(=O)O)c(NCc2ccco2)cc1Cl` [Furosemide], the ISRE reporter came out at 1.01.

Take `CC(C)(C)C1NC(=O)OC2CCCC2OC/C=C/C(F)(F)c2nc3ccccc3nc2OC2CC(C(=O)NC3(C(=O)NS(=O)(=O)C4(C)CC4)CC3C(F)F)N(C2)C1=O` (stereo not given) [Glecaprevir]: the ISRE reporter came to 0.928. The value for `CC(=O)O.NCc1ccc(S(N)(=O)=O)cc1` [Mafenide Acetate] was 0.853; that for `CC(C)NCC(O)COc1ccc(CCOCC2CC2)cc1.Cl` (stereo not given) [Levobetaxolol HCl] was 0.845. `CC(=O)O.N=C(N)NCCCC(NC(=O)C1CCCN1C(=O)C1CSSCCC(=O)NC(Cc2ccc(O)cc2)C(=O)NC(Cc2ccccc2)C(=O)NC(CCC(N)=O)C(=O)NC(CC(N)=O)C(=O)N1)C(=O)NCC(N)=O` (stereo not given) [Desmopressin Acetate]: the ISRE reporter stood at 0.782. In the case of `CCn1cc(C(=O)O)c(=O)c2cnc(N3CCCC3)nc21` [Piromidic Acid], the ISRE reporter is 0.862.

As for `CC(C)(C)NCC(O)COc1nsnc1N1CCOCC1.O=C(O)/C=C\C(=O)O` (stereo not given) [Timolol Maleate], the ISRE reporter was determined as 0.663. Then `C[N+](C)(C)CCO.Cn1c(=O)c2[n-]cnc2n(C)c1=O` [Oxtriphylline], with 0.126. Then `CCC1OC(=O)C(C)C(OC2CC(C)(OC)C(O)C(C)O2)C(C)C(OC2OC(C)CC(N(C)C)C2O)C(C)(O)CC(C)CN(C)C(C)C(O)C1(C)O` (stereo not given) [Azithromycin], with 0.825; and `O=Cc1ccc(CO)o1` [5-Hydroxymethylfurfural], with 0.777. `CC(C)C(NC(=O)C(CC(=O)O)NC(=O)C(CCCCN)NC(=O)C(N)CCCNC(=N)N)C(=O)NC(Cc1ccc(O)cc1)C(=O)O` (stereo not given) [Thymopentin]: the ISRE reporter was determined as 1.04.

Consider `CC=Cc1ccc(OC)cc1` (stereo in doubt) [cis-Anethole], for which the ISRE reporter was found to be 0.871. Compound `CCN1CC(CCN2CCOCC2)C(c2ccccc2)(c2ccccc2)C1=O.Cl.O` (stereo not given) [Doxapram HCl] showed an ISRE reporter of 0.72. In the case of `NC(=O)c1cn(Cc2c(F)cccc2F)nn1` [Rufinamide], the ISRE reporter worked out at 0.686.

These data come from the supplement of paper PMC9174493.
